# Data taken from PubChem BioAssay AID686970 (National Center for Advancing Translational Sciences (NCATS), 2013).
# Where “and” joins values, the source holds several entries; their conditions need not be identical. Equal entries are not always repeated. Out of some 360,000 compounds screened, about 6,000 (1.7%) were called active. This list was built around the results that the source calls inconclusive (neither active nor inactive); the mix of calls is not that of the screen. Calls follow the shape of the dose curve; as a rule, active = well fitted cell-killing curve with a large enough effect; inconclusive = small, poorly fitted or top-dose-only effect, or effect the other way; inactive = flat fitted curve, though single readings scatter. Potencies beside an inconclusive call are fits to weak or partial responses and may not hold up.
# Experiment: qHTS for induction of synthetic lethality in tumor cells producing 2HG: qHTS for the HT-1080-NT fibrosarcoma cell line; also: nearly all actives have a fitted effect of over 55% in size
# Conditions: HT-1080-NT fibrosarcoma viability, CellTiter-Glo ATP luminescence, 48 h; activity, negative = less viability: at 46.1 µM (top of the series) unless noted
# Excerpt: Unbiased genomic sequencing for 22 glioma genomes found recurrent mutation of IDH1 on chromosome 2q33, a gene encoding the cytosolic isoform of IDH1 associated with the tricarboxylic acid cycle (TCA) that catalyzes the oxidative decarboxylation of isocitrate, yielding alpha-ketoglutarate and CO2 via NADP+ to NADPH conversion. Subsequent studies confirmed the recurrent IDH mutations in up to 70% of secondary gliomas and in 10% of AML cases. In addition, the somatic mutation of cancer-associated IDH1 is a point mutation resulting in various amino-acid substituents at Arginine132 (IDH1 R132), a key residue found in the enzyme's active site that when mutated, results in the loss-of-function in metabolizing isocitrate but confers a gain-of-function to produce the oncometabolite 2-hydroxyglutarate (2HG). This in effect defines IDH1 as an oncogene and provides an extraordinary opportunity to discover chemical probes against mutant IDH1 that may translate into much needed new therapies for glioma and AML patients.
# This assay aims to perform a synthetic lethal screen for chemical probes specific for 2HG-producing tumor cells using matched paired cell lines (1) HT-1080-NT fibrosarcoma cell line that overproduces 2HG and (2) HT-1080-IDH1KD cell line which has IDH1 expression knocked-down. Desirable compounds are toxic to the NT fibrosarcoma cells but not to the IDH1KD cell line. The data in this AID corresponds to the results of the qHTS against the HT-1080-NT fibrosarcoma cell line.
# [1] Dang L, Jin S, Su SM. IDH mutations in glioma and acute myeloid leukemia. Trends of Mol Med. 2010; 16(9): 387-97.
# [2] Dang L et al. Cancer-associated IDH1 mutations produce 2-hydroxyglutarate. Nature. 2010; 465(7300):966.
# NIH Molecular Libraries Probe Production Centers Network [MLPCN]
# NIH Chemical Genomics Center [NCGC]
# Assay Submitter (PI): Lenny Dang Ph.D., Agios Pharmaceuticals
# Suspensions of trypsinized HT-1080-NT cells were dispensed into white, tissue culture-treated, solid 1536-well plates at 5uL/well (750 cells/well final concentration) in RPMI medium supplemented with 5% FBS. Plates were incubated at 37 degrees C for 2 hours, after which 23 nL of compounds or DMSO were delivered to each well using a pin tool. Plates were then incubated at 37 degrees C for an additional 48 hours. CellTiter-Glo viability reagent (Promega) was dispensed into wells (2.5uL/well) and incubated at room temperature for 10 minutes. The plates were measured on a PerkinElmer ViewLux plate reader for luminescent signal (clear filter, 1 sec exp). DMSO-treated control wells and media-only (no cells) control wells were used to normalize %Activity of identified toxic compounds; DMSO-treated wells corresponded to 0%Activity (100% viability), while media-only controls were used to normalize 100%Activity (0% viability).
# Concentration-response curves were fitted to the signals arising from the resulting luminescence. The concentration-effect curves were then classified based on curve quality (r2), response magnitude and degree of measured activity, and compounds were subsequently categorized based on their curve class.
# Potency is read from the fitted curve at half-maximal effect; tags tell the direction and shape of the fitted curve.
Compound,Potency,"activity, negative = less viability"
CCn1c(CNC(=O)COc2ccc(C(C)C)cc2)nnc1SCC(=O)Nc1ccccc1,"inconclusive: 35.5 µM [cytotoxic, single point]",–
CC1(C)CC(n2c(NCCO)nc3c(c2=O)C2(CCCC2)Cc2ccccc2-3)CCO1 (stereo unspecified),"inconclusive: 25.1 µM [cytotoxic, single point]",–
O=C(CSc1nc2ccccc2c(=O)n1CCCN1CCOCC1)Nc1ccc(Br)cc1,"inconclusive: 20.6 µM [cytotoxic, single point]",–
O=C(CCl)Nc1ccccc1Sc1ccc(Cl)cc1,"inconclusive: 25.1 µM [cytotoxic, single point]",–
O=C(CSc1c2c(nc3ccc(Cl)cc13)CCCC2)NCCCN1CCOCC1,"inconclusive: 29.1 µM [cytotoxic, single point]",–
C[C@@H]1CN([C@@H](C)CO)S(=O)(=O)c2ccc(C#CC3CCCCC3)cc2O[C@@H]1CN(C)Cc1cccnc1,"inconclusive: 29.1 µM [cytotoxic, single point]",–
COc1ccc(CCNC(=O)C(C)n2nc(C)c3c(C)n(-c4ccc(C)cc4)nc3c2=O)c(OC)c1 (stereo unspecified),active: 20.6 µM,–
Cc1nc(NS(=O)(=O)c2ccc(Cl)s2)c2c3c(sc2n1)CCCC3,"inconclusive: 29.1 µM [cytotoxic, single point]",–
N#C/C(=C(/O)c1cccs1)c1nnc2n1CCCCC2,"inconclusive: 20.6 µM [rising, single point]",–
Cc1nc2cc(-c3ccsc3-n3c(C)ccc3C)[nH]n2c(=O)c1Cl,"inconclusive: 29.1 µM [cytotoxic, single point]",–
CCOc1ccc(C(=O)CCN2CCCCCC2)cc1,"inconclusive: 18.4 µM [cytotoxic, single point]",–
O=C(/C=C/c1cccc(O)c1)c1ccc(N2CCOCC2)cc1,inactive,–
O=C(CCCCCBr)N1CCC(CC2CC(c3cccc(Br)c3)=NO2)(C(=O)NCC2CCCCC2)CC1 (stereo unspecified),"inconclusive: 18.4 µM [cytotoxic, single point]",–
CSc1nc(N2CCOCC2)c2c3c(sc2n1)CCC3,inactive,–
COc1cccc(NC(=O)c2ccc(NC(=O)C3CC(=O)OC34CCCCC4)cc2)c1 (stereo unspecified),inactive,–
Cc1[nH]n(-c2cccc(Cl)c2)c(=O)c1-c1ccccc1,"inconclusive: 29.1 µM [cytotoxic, single point]",–
CCOc1[nH]n(-c2ccccc2)c(=O)c1C=Nc1ccc(OC)cc1,inactive,–
CC1CCN(CCCOc2ccc(Cl)cc2Br)CC1,"inconclusive: 25.9 µM [cytotoxic, partial curve]",–
CCCCN(C)c1c(C)nc2ccc(C(=O)NC3CCN(C)CC3)cn12,"inconclusive: 20.6 µM [cytotoxic, partial curve]",–
O=C(Nc1cccc(Cl)c1)c1ccc(F)c(S(=O)(=O)NCc2cccs2)c1,"inconclusive: 14.6 µM [cytotoxic, partial curve]",–
COc1ccc(Cc2c(-c3cccc(Br)c3)nc3ccc(Br)cn23)c(C)c1,inactive,–
COC(=O)c1cc(Cl)ccc1NCC(N)c1ccccc1 (stereo unspecified),active: 20.6 µM,–

Compound,Potency,"activity, negative = less viability"
CCC(=O)N1CCCC1(C)C(=O)Nc1ccc2scnc2c1 (stereo unspecified),–,inconclusive: 16.9%
O=S(=O)(NCc1cc(-c2ccc(Cl)cc2)no1)c1ccc(Cl)cc1,"inconclusive: 18.4 µM [cytotoxic, single point]",–
CCCc1nc2ccc(C)cn2c1Cc1ccccc1OC,"inconclusive: 16.4 µM [cytotoxic, single point]",–
CC(=O)c1c(C)cc(C)c(CSc2nc(C)cc(=O)[nH]2)c1C,"inconclusive: 31.6 µM [cytotoxic, single point]",–
Cn1cccc1Cc1nnc(SCC(=O)Nc2ccc3c(c2)OCO3)n1CCc1ccccc1,"inconclusive: 16.4 µM [cytotoxic, single point]",–
CCOC(=O)Cc1csc(NC(=O)CSc2nc(N)c3c(C)c(C)sc3n2)n1,–,inconclusive: -6.85% [cytotoxic]
c1ccc(-n2ncc3c(NCc4ccc5c(c4)OCO5)ncnc32)cc1,"inconclusive: 15.8 µM [cytotoxic, single point]",–
CC(=O)c1ccc(-c2cnc3c(NC=O)cc(-c4cccc(NS(C)(=O)=O)c4)cn23)cc1,"inconclusive: 4.11 µM [cytotoxic, partial curve]",–
O=C1NC(Nc2nc3ccccc3s2)(C(F)(F)F)C(=O)N1C1CCCCC1 (stereo unspecified),"inconclusive: 35.5 µM [cytotoxic, single point]",–
Nc1nc(N)c2cc(S(=O)(=O)c3cccc(C(F)(F)F)c3)ccc2n1,active: 13 µM,–
Cc1ccc(OCCOCCOc2ccc(Br)cc2/C=N\NC(=O)c2ccncc2)cc1,"inconclusive: 23.1 µM [cytotoxic, single point]",–
O=C(CSC1=NCCS1)NC(c1ccccc1)c1ccccc1,"inconclusive: 29.1 µM [cytotoxic, single point]",–
Oc1ccc(CNC2CCCCC2)cc1,inactive,–
CC(=O)Nc1cc(-c2ccccc2CN(C)C)cn2c(-c3ccc(C(C)=O)cc3)cnc12,active: 18.4 µM,–
CCC(C)Sc1cc(-c2nc3ccc(C)cn3c2NCc2ccccc2)ccc1OC (stereo unspecified),"inconclusive: 37.2 µM [cytotoxic, single point] and inconclusive: 23.1 µM [cytotoxic, single point]",–
Cc1ccc(C)c(SCc2noc(C(=O)NC(C)C)c2C(=O)O)c1,"inconclusive: 25.9 µM [cytotoxic, single point]",–
CCN(CC)C(C)C(=O)Nc1c2c(cc3c1CCC3)CCC2 (stereo unspecified),inactive,–
CC(=O)c1sc(NC(=O)C2(F)C(F)(F)C(F)(F)C(F)(F)C(F)(F)C2(F)F)nc1C,active: 7.08 µM,–
CC(C)(C)c1ccc(-c2conc2N)cc1,"inconclusive: 35.5 µM [cytotoxic, single point]",–
CCN(CC)c1ccc(/C=N/NC(=O)c2ccoc2C)c(O)c1,"inconclusive: 5.8 µM [cytotoxic, full curve, poor fit]",–
C[C@H]1CN=C(N(C)C)N1CC1CCCC1,inactive,–
O=C(CC(c1ccccc1)c1ccccc1)Nc1ccc(Cl)cn1,"inconclusive: 14.6 µM [cytotoxic, partial curve]",–

Compound,Potency,"activity, negative = less viability"
Cc1ccc(/C=N/NC(=O)c2cc(C3CC3)nc3ccccc23)o1,"inconclusive: 6.51 µM [cytotoxic, full curve]",–
CN1CCN(c2ccc3sc(-n4ccc5ccccc54)nc3c2)CC1,"inconclusive: 13 µM [cytotoxic, partial curve]",–
Cc1ccc(C)c(NC(=S)NNc2ccc(F)cc2F)c1,active: 25.9 µM,–
CCN(CC)c1ncnc2c1ncn2[C@H]1CN(Cc2ccc(-c3ccccc3)cc2)C[C@@H](CO)O1,"inconclusive: 29.1 µM [cytotoxic, partial curve, poor fit]",–
COc1cc(NC(=O)C2CCC(CNc3c(N4CCCCC4)c(=O)c3=O)CC2)cc(OC)c1 (stereo unspecified),"inconclusive: 11.6 µM [rising, partial curve]",–
O=C(NCc1cccs1)c1ccc(-c2ccc(F)c(F)c2)c2ccoc12,"inconclusive: 29.1 µM [cytotoxic, single point]",–
Cc1ccccc1-c1noc(-c2ccc(O)cc2)n1,"inconclusive: 35.5 µM [cytotoxic, single point]",–
CCOP(=O)(c1ccccc1)c1nc(-c2ccccc2C)oc1N1CCCCC1 (stereo unspecified),"inconclusive: 20.6 µM [cytotoxic, single point]",–
CCCC(C(=O)n1nc(C)cc1C)C(NS(=O)(=O)c1ccc(C)cc1)c1ccccc1 (stereo unspecified),"inconclusive: 18.4 µM [cytotoxic, single point]",–
CC(C)N(Cc1ccccc1)C(=O)CN1C(=O)NC2(CCCC2)C1=O,–,inactive: 4.59% [at 9.24 µM]
Cc1cc(C)cc(NCc2cc3c(cc2[N+](=O)[O-])OCO3)c1,"inconclusive: 15.8 µM [cytotoxic, single point]",–
Cc1cccc2cc(CN(Cc3ccco3)S(=O)(=O)c3ccc4c(c3)OCCO4)c(=O)[nH]c12,"inconclusive: 17.8 µM [cytotoxic, single point]",–
CC(C)C1C(=O)N(Cc2cn(CCC3OCCO3)nn2)CCS(=O)(=O)N1Cc1ccc(-c2ccccc2Cl)cc1 (stereo unspecified),"inconclusive: 18.4 µM [cytotoxic, single point]",–
CCN1CC2=C(OC(N)=C(C#N)C2c2cccs2)/C(=C\c2cccs2)C1 (stereo unspecified),active: 22.4 µM,–
CC1=CC(C)(C)N2C(=O)C(=O)c3cc(OC(=O)c4ccco4)cc1c32,active: 2.31 µM,–
Cc1ccc(-c2noc(Cn3cc(S(=O)(=O)N4CCCC4)ccc3=O)n2)cc1,inactive,–
CCC(c1nnnn1Cc1ccco1)N(Cc1ccccc1OC)Cc1cc2cc(C)ccc2[nH]c1=O (stereo unspecified),"inconclusive: 16.4 µM [cytotoxic, single point]",–
COc1ccc(-c2cn3c(C)c(C(=O)Nc4cc(NC(C)=O)ccc4OC)sc3n2)cc1,"inconclusive: 5.01 µM [cytotoxic, full curve]",–
CC(C(=O)NC1C=CS(=O)(=O)C1)N1C(=O)/C(=C/c2cccc(Cl)c2)SC1=S (stereo unspecified),"inconclusive: 29.1 µM [cytotoxic, single point]",–
COc1cc(C)ccc1NC(=O)Cc1csc(NC(=O)Nc2ccccc2OC)n1,"inconclusive: 14.6 µM [cytotoxic, partial curve]",–
Fc1ccc(Nc2c3c(nc4ccccc24)CCC3)cc1,active: 16.4 µM,–
Cc1ccc2nc(/C(C#N)=C\c3ccc(N4CCCCC4)c([N+](=O)[O-])c3)[nH]c2c1,"inconclusive: 35.5 µM [cytotoxic, single point]",–
